# Where “and” joins values, the source holds several entries; their conditions need not be identical. Equal values may be shown once. Inconclusive results, whose numbers are uncertain, are shown with a selection of clear calls. For part of these data: Where the call is inconclusive, the potency comes from a doubtful curve fit. Calls of active or inactive are those of the source. Unless noted, calls follow the shape of the dose curve; as a rule, active = well fitted curve in the direction sought with a large enough effect in the repeat runs; inconclusive = weak or mixed curves; inactive = no such curve, though single readings can be large; an effect the other way counts as inactive or inconclusive.
# Assays:
# [1] = qHTS assay to identify small molecule antagonists of the estrogen receptor alpha (ER-alpha) signaling pathway using the BG1 cell line in the presence of 0.1 nM 17-beta-estradiol - cell viability counter screen (AID 1259241); also: nearly all actives have a fitted effect of over 40% in size; also: potency is read from the fitted curve at half-maximal effect
# How it was run: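 Live-cell protease activity (CellTiter-Fluor fluorescence, 30 min) was read in the same wells after VM7Luc4E2 cells had been exposed to compounds with 0.1 nM 17beta-estradiol for 22 hr at 37C.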
# [2] = target: Estrogen receptor beta (Homo sapiens) (UniProt Q92731); experiment: qHTS assay to identify small molecule agonists of the estrogen receptor beta (ER-beta) signaling pathway (AID 1259377; active = well fitted activation curve with a large enough effect in the signal ratio in the repeat runs, not every such curve was filed as active; inconclusive = weak or mixed curves, or effect the other way; the % refers to the signal ratio; also: potency is read from the fitted curve at half-maximal effect); details: ER-beta-UAS-bla HEK293T, beta-lactamase FRET ratio, 16 h; activation: at 92.4 µM (top of the series) unless noted
# How it was run: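 Beta-lactamase reporter readout: fluorescence of LiveBLAzer B/G FRET substrate after 2 h at room temperature, following 16 h compound treatment of ER-beta-UAS-bla HEK293T cells at 37C in 2% charcoal-stripped FBS medium.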
# [3] = target: Estrogen receptor beta (Homo sapiens) (UniProt Q92731); experiment: qHTS assay to identify small molecule antagonists of the estrogen receptor beta (ER-beta) signaling pathway (AID 1259378; active = well fitted inhibition curve with a large enough effect in the signal ratio in the repeat runs, not every such curve was filed as active; inconclusive = weak or mixed curves, or effect the other way; inactive = no such curve, though single readings can be large or run the other way; the % refers to the signal ratio; also: potency is read from the fitted curve at half-maximal effect; as to activity, negative = inhibition: % is scaled to controls: 0 for no effect and ±100 for the full control effect); details: ER-beta-UAS-bla HEK293T, beta-lactamase FRET ratio, 16 h; activity, negative = inhibition: at 92.4 µM (top of the series) unless noted
# How it was run: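 ER-beta-UAS-bla HEK293T cells in 2% charcoal-stripped FBS medium treated with compound plus 1nM final 17-beta-estradiol for 16 hr at 37C. Beta-lactamase reporter read by FRET substrate fluorescence after 2 hours at room temperature.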
# [4] = qHTS assay to identify small molecule agonists of the estrogen receptor beta (ER-beta) signaling pathway - cell viability counter screen (AID 1259380); also: nearly all actives have a fitted effect of over 30% in size; also: potency is read from the fitted curve at half-maximal effect
# How it was run: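 Cells used were ER-beta-UAS-bla HEK293T in medium with 2% charcoal-stripped FBS. They were treated for 16 hr at 37C. Viability came from CellTiter-Glo luminescence.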
# [5] = qHTS assay to identify small molecule agonists of the sonic hedgehog signaling (Shh) pathway - cell viability counter screen (AID 1259366); also: potency is read from the fitted curve at half-maximal effect; nearly all actives have a fitted effect of over 50% in size
# How it was run: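 CellTiter-Fluor fluorescence read-out, 1 hr at 37C, added after 23hr compound exposure. Cells: 3T3 Gli1-Luc, an NIH/3T3 clone with stably integrated Gli1-Luc reporter, plated 4hr before compound.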
# [6] = qHTS assay to identify small molecule antagonists of the sonic hedgehog signaling (Shh) pathway - cell viability counter screen (AID 1259367); also: potency is read from the fitted curve at half-maximal effect; nearly all actives have a fitted effect of over 55% in size
# How it was run: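 Seed 3T3 Gli1-Luc cells at 2,000 per well; incubate 4 hr; add compound in DMSO, then conditioned medium; incubate at 37C with 5% CO2; add CellTiter-Fluor after 23 hr; read fluorescence 1 hr later.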
# [7] = qHTS assay to identify small molecule agonists of the androgen receptor (AR) signaling pathway in the presence of an antagonist - cell viability counter screen (AID 1259379); also: nearly all actives have a fitted effect of over 25% in size; also: potency is read from the fitted curve at half-maximal effect
# How it was run: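 A CellTiter-Fluor read-out measured viability of MDA-kb2 reporter cells (MMTV promoter with AR and GR response elements). Treatment: nilutamide 3.0uM final with compounds at 15 concentrations, 16 hr, 37C, 0% CO2.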
# [8] = qHTS assay to identify small molecule antagonists of the estrogen receptor beta (ER-beta) signaling pathway - cell viability counter screen (AID 1259382); also: nearly all actives have a fitted effect of over 55% in size; also: potency is read from the fitted curve at half-maximal effect
# How it was run: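 Agonist-stimulated (1nM E2) ER-beta-UAS-bla HEK293T cells are incubated with library compounds for 16 hr at 37C. Cell viability is then assessed in the reporter-assay wells by adding CellTiter-Glo and reading luminescence after 30 min.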
# [9] = target: Estrogen receptor (Homo sapiens) (UniProt P03372); experiment: qHTS assay to identify small molecule antagonists of the estrogen receptor alpha (ER-alpha) signaling pathway using the BG1 cell line in the presence of 0.1 nM 17-beta-estradiol (AID 1259244); also: potency is read from the fitted curve at half-maximal effect; nearly all actives have a fitted effect of over 50% in size
# How it was run: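 VM7Luc4E2; 4xERE-luciferase; 0.1 nM E2 final; 22 h co-incubation, 37C; ONE-Glo luminescence after 30 min at room temperature.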
# [10] = qHTS assay to identify small molecule antagonists of the sonic hedgehog signaling (Shh) pathway (AID 1259369; calls by dose curve; also: potency is read from the fitted curve at half-maximal effect; nearly all actives have a fitted effect of over 45% in size)
# How it was run: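 Conditioned medium drives Shh signalling in 3T3Gli1-Luc cells; compounds in DMSO co-applied, 24hr at 37 C, then luciferase luminescence.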
# [11] = target: Estrogen receptor (Homo sapiens) (UniProt P03372); experiment: qHTS assay to identify small molecule agonists of the estrogen receptor alpha (ER-alpha) signaling pathway in the presence of an antagonist (AID 1259383; calls by dose curve; also: top concentration of the series differs between compounds; % is scaled to controls: 0 for no effect and ±100 for the full control effect; nearly all actives have a fitted effect of over 15% in size)
# How it was run: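 Using VM7Luc4E2 cells seeded 24hr before treatment, antagonist ICI-182,780 (10.0nM final) was added, followed by compounds at 15 concentrations. Plates incubated 22hr; ONE-Glo luminescence quantified reporter activity.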
# [12] = qHTS assay to identify small molecule phospholipidosis (PLD) inducers (AID 1259344; active = well fitted curve in the direction sought with a large enough effect; inconclusive = small, poorly fitted or top-dose-only effect, or another doubt; inactive = no such curve, though single readings can be large; an effect the other way counts as inactive or inconclusive; also: potency is read from the fitted curve at half-maximal effect)
# How it was run: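 Quantitative HTS in HepG2: compound plus LipidTOX Red dye for 24 h, paraformaldehyde fixation with Hoechst 33342, widefield high-content imaging; amiodarone as positive and DMSO as negative control.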
# Tags tell the direction and shape of the fitted curve or compound fluorescence and quenching.
# UniProt P03372, sequence (P03372 whole entry, looked up): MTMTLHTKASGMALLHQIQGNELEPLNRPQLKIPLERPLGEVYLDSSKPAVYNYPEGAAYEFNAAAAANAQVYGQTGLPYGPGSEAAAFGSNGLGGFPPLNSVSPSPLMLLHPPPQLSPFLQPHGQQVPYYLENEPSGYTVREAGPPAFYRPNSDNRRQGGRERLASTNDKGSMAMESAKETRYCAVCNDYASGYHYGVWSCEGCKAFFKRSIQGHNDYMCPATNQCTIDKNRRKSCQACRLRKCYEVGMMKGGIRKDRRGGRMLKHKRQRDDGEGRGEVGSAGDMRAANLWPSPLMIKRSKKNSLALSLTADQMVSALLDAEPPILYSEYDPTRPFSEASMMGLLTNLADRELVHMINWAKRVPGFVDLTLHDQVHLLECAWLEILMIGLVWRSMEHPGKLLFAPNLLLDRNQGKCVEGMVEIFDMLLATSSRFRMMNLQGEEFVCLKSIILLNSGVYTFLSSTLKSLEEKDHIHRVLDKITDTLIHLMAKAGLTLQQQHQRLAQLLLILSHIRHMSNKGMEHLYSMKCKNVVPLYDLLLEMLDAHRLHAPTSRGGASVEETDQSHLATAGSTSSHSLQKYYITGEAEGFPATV
# UniProt Q92731, sequence (Q92731 whole entry, looked up): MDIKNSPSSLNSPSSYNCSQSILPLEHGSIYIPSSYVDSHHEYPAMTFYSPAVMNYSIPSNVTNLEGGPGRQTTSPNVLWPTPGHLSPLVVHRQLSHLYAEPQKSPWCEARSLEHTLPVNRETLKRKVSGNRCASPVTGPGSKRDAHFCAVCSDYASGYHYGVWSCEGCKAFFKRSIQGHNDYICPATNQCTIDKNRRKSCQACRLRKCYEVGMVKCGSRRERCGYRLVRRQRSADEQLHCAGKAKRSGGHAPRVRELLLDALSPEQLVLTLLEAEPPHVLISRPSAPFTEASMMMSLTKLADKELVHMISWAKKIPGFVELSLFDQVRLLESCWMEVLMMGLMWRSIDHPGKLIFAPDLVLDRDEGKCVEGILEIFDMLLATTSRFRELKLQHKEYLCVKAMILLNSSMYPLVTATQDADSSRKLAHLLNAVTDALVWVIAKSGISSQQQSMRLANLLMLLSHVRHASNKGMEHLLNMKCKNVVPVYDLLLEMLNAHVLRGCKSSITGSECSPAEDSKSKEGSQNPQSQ
compound,measurement,setting,value
COc1cc(CNC(=O)CCCC/C=C/C(C)C)ccc1O,Potency,[1],"inconclusive: 59.5 µM [cytotoxic, partial curve, poor fit]"
same,Potency,[2],"inconclusive: 11.9 µM [rising, full curve]"
same,"activity, negative = inhibition",[3],inconclusive: -48.2%
same,Potency,[4],"inconclusive: 23.7 µM [cytotoxic, partial curve, poor fit]"
CCC1=C[C@@H]2CN(C1)Cc1c([nH]c3ccccc13)[C@@](C(=O)OC)(c1cc3c(cc1OC)N(C)[C@H]1[C@@](O)(C(=O)OC)[C@H](OC(C)=O)[C@]4(CC)C=CCN5CC[C@]31[C@@H]54)C2,Potency,[1],inconclusive: 21.1 µM [cytotoxic]
same,Potency,[5],active: 11.9 µM
same,Potency,[6],"inconclusive: 0.0298 µM [cytotoxic, full curve, poor fit]"
same,Potency,[7],"inconclusive: 23.7 nM [cytotoxic, full curve, poor fit]"
same,Potency,[4],"inconclusive: 33.5 µM [cytotoxic, single point]"
CO[C@@]1(NC(=O)C(C(=O)O)c2ccc(O)cc2)C(=O)N2C(C(=O)O)=C(CSc3nnnn3C)CO[C@@H]21 (stereo partly specified),Potency,[1],inactive
same,Potency,[8],inactive
CC(C)(C)c1cc(O)c(C(C)(C)C)cc1O,Potency,[1],"inconclusive: 68.6 µM [cytotoxic, single point]"
same,Potency,[9],active: 43.3 µM
same,Potency,[6],inconclusive: 68.6 µM [cytotoxic]
same,Potency,[3],active: 30.6 µM
same,Potency,[4],"inconclusive: 77 µM [cytotoxic, single point]"
C[C@]12C=CC(=O)C=C1CC[C@H]1[C@@H]3C[C@@H](O)[C@](O)(C(=O)CO)[C@@]3(C)C[C@H](O)[C@@]12F,Potency,[1],inactive
same,Potency,[10],"inconclusive: 0.0086 µM [inhibitor, full curve]"
same,Potency,[4],inactive
Cc1ccc(S(=O)(=O)NC(=O)NC2CCCCC2)cc1,Potency,[1],inactive
same,Potency,[11],inactive
Cc1cnc(NC(=O)C2=C(O)c3ccccc3S(=O)(=O)N2C)s1,Potency,[1],"inconclusive: 27.4 µM [cytotoxic, partial curve] and inconclusive: 61.1 µM [cytotoxic, partial curve]"
same,Potency,[9],"inconclusive: 68.6 µM [inhibitor, single point]"
same,Potency,[6],"inconclusive: 19.4 µM [cytotoxic, partial curve, poor fit] and inconclusive: 77 µM [cytotoxic, single point]"
same,Potency,[2],"inconclusive: 11.9 µM [rising, single point]"
same,Potency,[7],"inconclusive: 48.7 µM [cytotoxic, partial curve] and inconclusive: 30.6 µM [cytotoxic, partial curve]"
same,Potency,[4],inactive
CC1(C)CCC[C@]2(C)[C@H]3CC(=O)O[C@]3(C)CC[C@@H]12,Potency,[1],"inconclusive: 68.6 µM [rising, single point]"
same,Potency,[10],active: 30.6 µM
same,Potency,[7],inactive
same,Potency,[4],"inconclusive: 77 µM [cytotoxic, single point]"
Cc1ccc(N=Nc2c(O)c(C(=O)O)cc3ccccc23)c(S(=O)(=O)O)c1,Potency,[1],"inconclusive: 13.3 µM [cytotoxic, partial curve]"
same,Potency,[5],"inconclusive: 13.3 µM [cytotoxic, partial curve]"
same,Potency,[6],active: 13.3 µM
same,Potency,[10],"inconclusive: 1.33 µM [inhibitor, single point]"
same,Potency,[3],inactive
Cc1ccc(NC(=O)c2ccc(CN3CCN(C)CC3)cc2)cc1Nc1nccc(-c2cccnc2)n1,Potency,[1],"inconclusive: 18.8 µM [cytotoxic, partial curve, poor fit]"
same,Potency,[12],"inconclusive: 5.01 µM [activator, single point]"
same,Potency,[5],inconclusive: 16.8 µM [cytotoxic]
same,Potency,[6],"inconclusive: 15 µM [cytotoxic, full curve]"
same,Potency,[4],"inconclusive: 11.9 µM [cytotoxic, full curve, poor fit]"
CC(CCc1ccccc1)NCC(O)c1ccc(O)c(C(N)=O)c1 (stereo unspecified),Potency,[1],"inconclusive: 30.6 µM [cytotoxic, partial curve]"
same,Potency,[6],active: 17.2 µM
same,Potency,[10],active: 30.6 µM
same,Potency,[4],"inconclusive: 43.3 µM [cytotoxic, partial curve, poor fit]"
same,Potency,[8],"inconclusive: 61.1 µM [cytotoxic, single point]"
O=C1OC(OC(=O)c2cccnc2Nc2cccc(C(F)(F)F)c2)c2ccccc21 (stereo unspecified),Potency,[1],inactive
same,Potency,[10],"inconclusive: 21.1 µM [inhibitor, partial curve]"
same,Potency,[2],"inconclusive: 16.8 µM [rising, full curve]"
same,"activity, negative = inhibition",[3],inconclusive: -61.1% [at 42.5 µM]
same,Potency,[4],"inconclusive: 33.5 µM [cytotoxic, single point]"
